No constants are given. Whether binding was seen depends on the method and setting. Binding seen in cells or lysates may run through a third protein. Some entries that bind do so weakly or less than the wild type. Sequences can lack the tags named with a protein.
T1: PXL1-CLuc (Arabidopsis thaliana) (UniProt Q9FRS6)
T1 sequence: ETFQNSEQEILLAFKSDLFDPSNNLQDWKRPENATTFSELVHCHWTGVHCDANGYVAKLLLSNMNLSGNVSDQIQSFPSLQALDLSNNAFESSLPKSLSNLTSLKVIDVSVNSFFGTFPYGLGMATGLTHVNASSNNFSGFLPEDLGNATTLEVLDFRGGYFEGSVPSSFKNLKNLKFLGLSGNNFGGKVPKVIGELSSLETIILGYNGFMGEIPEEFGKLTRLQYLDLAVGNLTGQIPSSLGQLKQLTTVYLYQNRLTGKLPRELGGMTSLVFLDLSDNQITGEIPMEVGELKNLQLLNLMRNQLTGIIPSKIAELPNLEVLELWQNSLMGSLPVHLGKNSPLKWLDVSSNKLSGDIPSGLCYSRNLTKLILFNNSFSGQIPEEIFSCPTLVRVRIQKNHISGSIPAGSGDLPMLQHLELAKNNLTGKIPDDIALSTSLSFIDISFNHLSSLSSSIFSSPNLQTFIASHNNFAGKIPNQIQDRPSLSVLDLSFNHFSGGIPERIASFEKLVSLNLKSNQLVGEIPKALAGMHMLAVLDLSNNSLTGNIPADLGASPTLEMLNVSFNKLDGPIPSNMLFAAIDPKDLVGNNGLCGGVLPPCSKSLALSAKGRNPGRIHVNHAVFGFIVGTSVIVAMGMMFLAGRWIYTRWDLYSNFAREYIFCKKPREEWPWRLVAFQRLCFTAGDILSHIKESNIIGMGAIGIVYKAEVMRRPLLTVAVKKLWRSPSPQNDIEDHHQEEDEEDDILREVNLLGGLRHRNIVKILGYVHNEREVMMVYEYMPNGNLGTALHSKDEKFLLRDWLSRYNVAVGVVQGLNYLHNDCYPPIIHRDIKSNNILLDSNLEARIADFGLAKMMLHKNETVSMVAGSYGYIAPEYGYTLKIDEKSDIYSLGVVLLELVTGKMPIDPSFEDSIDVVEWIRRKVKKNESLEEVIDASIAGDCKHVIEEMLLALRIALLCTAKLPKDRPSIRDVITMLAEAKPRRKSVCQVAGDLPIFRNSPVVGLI

Sequences of proteins named here, by UniProt entry; tags and fusion partners are left off.
UniProt Q9LR78: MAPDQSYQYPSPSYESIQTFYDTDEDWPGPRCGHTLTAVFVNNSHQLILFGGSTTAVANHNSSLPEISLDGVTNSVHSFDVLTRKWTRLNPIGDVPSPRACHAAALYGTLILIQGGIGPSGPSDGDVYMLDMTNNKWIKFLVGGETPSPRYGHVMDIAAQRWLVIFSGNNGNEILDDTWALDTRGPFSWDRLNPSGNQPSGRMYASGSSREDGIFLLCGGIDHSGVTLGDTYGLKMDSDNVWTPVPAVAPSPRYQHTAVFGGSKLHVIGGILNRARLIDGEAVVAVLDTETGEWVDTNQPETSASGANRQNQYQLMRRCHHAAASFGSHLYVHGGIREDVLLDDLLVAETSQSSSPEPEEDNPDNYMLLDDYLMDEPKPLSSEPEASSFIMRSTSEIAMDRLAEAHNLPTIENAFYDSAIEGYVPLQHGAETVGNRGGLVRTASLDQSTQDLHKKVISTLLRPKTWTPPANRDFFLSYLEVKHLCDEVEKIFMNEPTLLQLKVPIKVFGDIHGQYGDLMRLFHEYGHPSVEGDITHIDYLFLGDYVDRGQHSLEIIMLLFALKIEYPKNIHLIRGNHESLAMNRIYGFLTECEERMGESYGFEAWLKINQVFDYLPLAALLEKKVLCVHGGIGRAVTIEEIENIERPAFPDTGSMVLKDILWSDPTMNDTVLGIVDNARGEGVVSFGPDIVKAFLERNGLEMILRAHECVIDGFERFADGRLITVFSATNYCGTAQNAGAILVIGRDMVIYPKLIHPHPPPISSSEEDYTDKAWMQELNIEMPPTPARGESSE


target: T1, PXL1-CLuc (Arabidopsis thaliana); test: split reporter; luciferase complementation imaging (LCI) in Nicotiana benthamiana leaves; PXL1-CLuc with NLuc fusions, 48 h after infiltration, luciferin sprayed

| binding | Molecule |
| --- | --- |
| no binding | BSU1-NLuc (from UniProt Q9LR78 1-793) (enzyme) |
| binds | BSL3-NLuc (enzyme, UniProt Q9SHS7 1-1006) MDLDSSMVPENDQDPIATSENQSPMEEKEEASEQQTGSESESASLTPSLPPPSQQQQQQQQQPQVTAVVGPRCAPTYSVVNAIIEKKEDGPGPRCGHTLTAVPAVGEEGTSSYIGPRLILFGGATALEGNSGGTGTPTSAGSAGIRLAGATADVHCYDVLSNKWSRLTPYGEPPSPRAAHVATAVGTMVVIQGGIGPAGLSAEDLHVLDLTQQRPRWHRVVVQGPGPGPRYGHVMALVGQRYLMAIGGNDGKRPLADVWALDTAAKPYEWRKLEPEGEGPPPCMYATASARSDGLLLLCGGRDANSVPLASAYGLAKHRDGRWEWAIAPGVSPSARYQHAAVFVNARLHVSGGALGGGRMVEDSSSVAVLDTAAGVWCDTKSVVTSPRTGRYSADAAGGDASVELTRRCRHAAAAVGDLIFIYGGLRGGVLLDDLLVAEDLAAAETTSAASHAAAAAAATNTPPGRSPGRYGFSDERTGELPESAPDAVVLGSPVAPPVNGDMYTDISTENAMVPGIRRTSKGVEYLVEASAAEAEAISATLAAAKARQVNGEVELPDRDRGAEATPSGKPSLSLIKPDSAVPNSVIPAGVRLHHRAVVVAAETGGALGGMVRQLSIDQFENEGRRVSYGTPESATAARKLLDRQMSINSVPKKVVAHLLKPRGWKPPVRRQFFLDCNEIADLCDSAERIFSSEPTVLQLKAPIKIFGDLHGQFGDLMRLFDEYGSPSTAGDISYIDYLFLGDYVDRGQHSLETITLLLALKVEYQHNVHLIRGNHEAADINALFGFRIECIERMGERDGIWVWHRINRLFNWLPLAALIEKKIICMHGGIGRSINHVEQIENIQRPITMEAGSIVLMDLLWSDPTENDSVEGLRPNARGPGLVTFGPDRVMEFCNNNDLQLIVRAHECVMDGFERFAQGHLITLFSATNYCGTANNAGAILVLGRDLVVVPKLIHPLPPAITSPETSPERHIEDTWMQELNVNRPPTPTRGRPQNPNDRGSLAWI |

Further lines, the molecule ahead of its results:

| Molecule | binding |
| --- | --- |
| BSL1-NLuc (enzyme, UniProt Q8L7U5 1-881) MGSKPWLHPAPQYKTLETFWDDEDDAPGPRCAHTLTAVAATKTHGPRLILFGGATAIEGGSSSVPGIRLAGVTNTVHSYDILTRKWTRLKPAGEPPSPRAAHAAAAVGTMVVFQGGIGPAGHSTDDLYVLDMTNDKFKWHRVVVQGDGPGPRYGHVMDLVSQRYLVTVTGNDGKRALSDAWALDTAQKPYVWQRLNPDGDRPSARMYASGSARSDGMFLLCGGRDTLGAPLGDAYGLLMHRNGQWEWTLAPGVAPSPRYQHAAVFVGARLHVSGGVLRGGRVIDAEASVAVLDTAAGVWLDRNGQVTSARGSKGQIDQDPSFELMRRCRHGAASVGIRIYVHGGLRGDVLLDDFLVAENSTFQSDISSPLLASDRTQQSSTPRFSYAARPPSGSEPSFSMSEGLSLDENSLEKLTEASAAEAEVASSVWRAAQLGAGTLDEEPSTSDASSPIVESTTDGTANEGDVRLHPRAVVVAKETVGSLGGMVRQLSLDQFQNESRRMVPMNNSDVPQPTKKFTRQKSPQGLHKKVIAALLRPRNWKPPGNRKFFLDSYEVGELCYAAEQIFMHEQTVLQLKAPIKVFGDLHGQFGDLMRLFDEYGFPSTAGDITYIDYLFLGDYVDRGQHSLETITLLLALKIEYPENVHLIRGNHEAADINALFGFRLECIERMGENDGIWAWTRFNQLFNYLPLAALIENKIICMHGGIGRSISTVEQIEKIERPITMDAGSLVLMDLLWSDPTENDSIEGLRPNARGPGLVTFGPDRVTEFCKRNKLQLIIRAHECVMDGFERFAQGQLITLFSATNYCGTANNAGAILVVGRGLVIVPKLIHPLPPPILSPENSPEHSGDDAWMQELNIQRPPTPTRGRPQPDFDRSSLAYI | binds |
| BSL2-NLuc (enzyme, UniProt Q9SJF0 1-1018) MDEDSSMVADNDQDREFQSLDGGQSPSPMERETPQQMNDQSPPPEGGSVPTPPPSDPNPATSQQQAAAVVGQEQQPALVVGPRCAPTYSVVDAMMDKKEDGPGPRCGHTLTAVPAVGDEGTPGYIGPRLVLFGGATALEGNSGGTGTPTSAGSAGIRLAGATADVHCYDVLSNKWTRLTPFGEPPTPRAAHVATAVGTMVVIQGGIGPAGLSAEDLHVLDLTQQRPRWHRVVVQGPGPGPRYGHVMALVGQRYLMAIGGNDGKRPLADVWALDTAAKPYEWRKLEPEGEGPPPCMYATASARSDGLLLLCGGRDANSVPLASAYGLAKHRDGRWEWAIAPGVSPSSRYQHAAVFVNARLHVSGGALGGGRMVEDSSSVAVLDTAAGVWCDTKSVVTSPRTGRYSADAAGGDASVELTRRCRHAAAAVGDLIFIYGGLRGGVLLDDLLVAEDLAAAETTYAASHAAAAAATNSPPGRLPGRYGFSDERNRELSESAADGAVVLGSPVAPPVNGDMHTDISPENALLPGTRRTNKGVEYLVEASAAEAEAISATLAAAKARQVNGEVELPDRDCGAEATPSGKPTFSLIKPDSMGSMSVTPAGIRLHHRAVVVAAETGGALGGMVRQLSIDQFENEGRRVSYGTPESATAARKLLDRQMSINSVPKKVIAHLLKPRGWKPPVRRQFFLDCNEIADLCDSAERIFASEPTVLQLKAPIKIFGDLHGQFGDLMRLFDEYGSPSTAGDISYIDYLFLGDYVDRGQHSLETISLLLALKVEYQHNVHLIRGNHEAADINALFGFRIECIERMGERDGIWVWHRINRLFNWLPLAASIEKKIICMHGGIGRSINHVEQIENIQRPITMEAGSIVLMDLLWSDPTENDSVEGLRPNARGPGLVTFGPDRVMEFCNNNDLQLIVRAHECVMDGFERFAQGHLITLFSATNYCGTANNAGAILVLGRDLVVVPKLIHPLPPALSSPETSPERHIEDTWMQELNANRPATPTRGRPQNSNDRGGSLAWM | binds |
